According to US20250222123A1, “COMPOUND COMPRISING FC-BINDING UNIT, AND CONJUGATE PREPARED USING SAME” (ABTIS CO., LTD., priority 2022, published 2025):

B1: Antibody-A: antibody comprising a light chain of SEQ ID NO: 26 and a heavy chain of SEQ ID NO: 25 (antibody)
heavy: QVQLVESGGGVVQPGRSLRLSCAASGFSLTTYGVHWVRQAPGKGLEWVAVIWAGGSTNYNSALMSRFTISRDNSKNTLYLQMNSLRAEDTAVYYCARAAYYGNGLDYWGQGTMVTVSS[… human IgG1 constant region …]
light: DIVMTQSPLSLPVTPGEPASISCKSSQTLLNSGNQKNYLTWYLQKPGQSPQLLIYWASTGESGVPDRFSGSGSGTDFTLKISRVEAEDVGVYYCQNAYFYPFTFGGGTKVEIKRTVAAPSVFIFPPSDEQLKSGTASVVCLLNNFYPREAKVQWKVDNALQSGNSQESVTEQDSKDSTYSLSSTLTLSKADYEKHKVYACEVTHQGLSSPVTKSFNRGEC
modifications: anti-CLDN 18.2 antibody Heavy chain; anti-CLDN 18.2 antibody Light chain
B2: ADC-A (conjugate)
heavy: B1 heavy
light: B1 light

Columns and labels:
MIA PaCa-2˜CLDN18.2 = test: Cell-based ELISA, binding to antigen-expressing cancer cells
Experimental: (§1) Four types of cell lines (MIA PaCa-2˜CLDN18.2, PATU8988S, parental MIA PaCa-2 (CLDN18.2-), and SNU601) were prepared. At this time, MIA PaCa-2˜CLDN18.2 and PATU8988S are CLDN18.2-positive pancreatic cancer cell lines. MIA PaCa-2 (CLDN18.2-) is a CLDN18.2-negative pancreatic cancer cell line. SNU601 is a CLDN18.2-positive gastric cancer cell line.
(§2) The prepared cell lines were cultured in DMEM containing 10% FBS and 1% penicillin/streptomycin (MIA PaCa-2˜CLDN18.2, MIA PaCa-2 (CLDN18.2-)), RPMI1640 containing 10% FBS and 1% penicillin/streptomycin (SNU601), and DMEM comprising 5% FBS, 5% horse serum, 1% penicillin/streptomycin, and […] L-glutamine (PATU8988S) in an incubator under the conditions of 37° C. and 5% CO2.
(§3) The prepared cell lines were plated on 96-well culture plates, treated with antibody-A, ADC-A, antibody-B, and ADC-B, respectively, and then cell-based ELISA was performed, and OD values were measured. At this time, the measured values are illustrated in FIGS. 38 to 41.
(§4) The measured results were used for regression analysis in GraphPad PRISM® 9.0 software to calculate EC50 and Bmax. The cell binding strengths of antibody-A, ADC-A, antibody-B, and ADC-B to each cell line were evaluated based on the calculated values.

SNU601 = test: as above; settings: SNU601 (CLDN18.2+)
Experimental: as §1, §2, §3, §4

PATU8988S = test: as above; settings: PATU8988S (CLDN18.2+)
Experimental: as §1, §2, §3, §4

[1] = system: CLDN18.2-negative cell lines; test: Cytotoxicity evaluation, summary over negative lines; format: cell-based; settings: up to the highest treatment concentration (10000 ng/ml)
Experimental: (§5) Four types of cell lines (MIA PaCa-2˜CLDN18.2, PATU8988S, parental MIA PaCa-2 (CLDN18.2-), SNU601, NUGC-4, and AGS) were prepared. MIA PaCa-2˜CLDN18.2 and PATU8988S are CLDN18.2-positive pancreatic cancer cell lines. MIA PaCa-2 (CLDN18.2-) is a CLDN18.2-negative pancreatic cancer cell line. SNU601 and NUGC-4 are CLDN18.2-positive gastric cancer cell lines. AGS is a CLDN18.2-negative gastric cancer cell line.
as §2, with “DMEM comprising” for “DMEM containing”, “PaCa-2˜CLDN18.2, and” for “PaCa-2˜CLDN18.2,”, “penicillin/streptomycin (SNU601, NUGC-4, and AGS),” for “penicillin/streptomycin (SNU601),”, “CO2. […]” for “CO2.”
(§6) Changes in cell viability according to treatment of each test substance were measured using a method which is the same as the CellTiter-Glo manual. At this time, the measured values are illustrated in FIGS. 45 to 50.
(§7) The measured results were used for regression analysis in GraphPad PRISM® 9.0 software to calculate IC50. The cytotoxicity of each test substance was evaluated based on the calculated values.

[2] = system: CLDN18.2-positive cancer cell lines; test: Cytotoxicity evaluation, summary over positive lines; format: cell-based
Experimental: as §5
as §2, with “DMEM comprising” for “DMEM containing”, “PaCa-2˜CLDN18.2, and” for “PaCa-2˜CLDN18.2,”, “penicillin/streptomycin (SNU601, NUGC-4, and AGS),” for “penicillin/streptomycin (SNU601),”, “CO2. […]” for “CO2.”
as §6, §7

Molecule	Bmax (MIA PaCa-2˜CLDN18.2)	Bmax (SNU601)	Bmax (PATU8988S)	toxicity (in words) [1]	IC50 value lower than that of ADC-B ([2]; ADC-B as control) [fold]	anticancer activity (in words) ([2]; regardless of cancer type)
B1	3.534	3.002	1.743	–	–	–
B2	3.354	2.752	1.607	almost no toxicity	10 to 35	exhibited anticancer activity
